The campaign covered roughly 320,000 compounds. About 7,600 (2.4%) were called active. This list was built around the results that the source calls inconclusive (neither active nor inactive); the mix of calls is not that of the screen. The call rests on the fitted dose curve; in most records, active means well fitted activation curve with a large enough effect; inconclusive means small, poorly fitted or top-dose-only effect; inactive means no such curve, though single readings can be large or run the other way. Potencies of inconclusive entries are left out as doubtful fits.
Assay: qHTS Assay for NPC1 Promoter Activators; further: nearly all actives have a fitted effect of over 60% in size; on activation: % of control where 0% means no effect
Settings: Huh7 NPC1 promoter luciferase reporter, 24 h; series mostly up to 9.22 µM; activation: at the top concentration
From the text: NIH Chemical Genomics Center [NCGC] NIH Molecular Libraries Probe Production centers Network [MLPCN] MLPCN Grant: MH089375-01A1 Assay Submitter (PI): Yiannis A. Ioannou NCGC Assay Overview: Niemann Pick Type C (NPC) is a rare neurodegenerative lipidosis that is characterized by lipid storage in the endosomal/lysosomal system. Treatment modalities for this devastating disease are currently non-existent due to the severe obstacles associated with accessing the central nervous system with proteins or genes. The majority of mutations causing NPC disease are missense mutations that are distributed throughout the length of the NPC1 protein, with the most prevalent being the I1061T allele. Although NPC1 mutant proteins may be functional, they are typically trapped in the ER due to misfolding. […] We have developed and optimized a cell based luciferase reporter assay in 1536 well format for the identification of up-regulators of the mutant NPC1 promoter.
The NPC1 promoter is cloned in front of the luciferase reporter gene, therefore NPC promoter activation results in luciferase expression. Frozen stock of the NPC1 promoter transfected Huh7 cells were obtained from the laboratory of Dr. Yiannis Ioannou (The Mount Sinai School of Medicine, New York, NY). Cells were propagated and maintained at NCGC in medium containing RPMI-1640 supplemented with 10% FBS, 2mM L-glutamine, and 50ug/ml penicillin/streptomycin. Cells were harvested in and plated for assays in OP-MEM I reduced-serum medium supplemented with 10% FBS. The Amplite luciferase reporter gene assay kit was purchased from ABD Bioquest and prepared/stored according to manufacturers recommendations. qHTS Assay Setup: 1.#Dispensed 5ul of Huh7 cells stably expressing NPC1-luciferase at a density of 1500 cells per well 1536-well plates. 2.#Incubate cells at 37C, 5% CO2, and 95% humidity for 2 hours. 3.#Transferred 23nl per well of compound in DMSO solution. 4.#Incubated at 37C, 5% CO2, and 95% humidity for 24 hours. 5.#Dispensed 3ul per well of Amplite reagent(ABD Bioquest) per well. 6.#Incubate at ambient for 10 minutes. 7.#Read using the luminescence protocol on the ViewLux plate reader (Perkin Elmer).
Potency means the concentration at half of the fitted maximal effect; tags describe the fitted curve by direction and shape.

Row | Compound | Potency | activation
1 | Cc1ccnc(NC(=S)NC(=O)/C=C/c2ccco2)c1 | inconclusive [activator, partial curve, poor fit] | 
2 | C=CCSc1ncnc2c1oc1nc3c(cc12)COC(C)(C)C3 | inconclusive [activator, single point] | 
3 | CCCn1nnc(NC(=O)c2sc3ccccc3c2Cl)n1 | inconclusive [activator, partial curve] | 
4 | CCOc1ccc(/C=C/C(=O)CCC(=O)O)cc1 | inconclusive [activator, partial curve] | 
5 | O=C(Nc1ccc(NC(=O)c2ccco2)nc1)c1cccnc1 | active: 2240 nM | 
6 | CN(C(=O)c1ccc(NC(=O)Cc2cccc(NC(=O)C3CCCN(C(=O)C4CCC4)C3)c2)cc1)C1CCCC1 (stereo not given) |  | inactive: -0.616%
7 | CCOc1cc(/C=N/NC(=O)C(=O)NCc2cccnc2)ccc1O |  | inactive: -3.04%
8 | CCn1c(C)cc(C(=O)CN2C(=O)c3ccccc3S2(=O)=O)c1C | inconclusive [activator, full curve] | 
9 | O=C(NC1CCSc2ccccc21)c1ccccc1Br (stereo not given) | inconclusive [activator, single point] | 
10 | Cc1c(C(=O)N2CCc3ccccc32)oc2ccccc12 | inconclusive [activator, single point] | 
11 | CCN(CC)c1ccc2cc(-c3nc4ccccc4n3C)c(=O)oc2c1 | inconclusive [activator, single point] | 
12 | CS(=O)(=O)N1N=C(c2ccccc2)CC1c1ccc2c(c1)OCO2 (stereo not given) | active: 3550 nM | 
13 | COc1cc(OC)c2c(=O)cc(-c3ccccc3)oc2c1 | inconclusive [activator, partial curve] | 
14 | COc1ccc2nc(NC(=O)c3ccc(F)cc3)sc2c1 | active: 2510 nM | 
15 | Cc1ccc(S(=O)(=O)N[C@H](C(=O)OCn2nnc3ccccc3c2=O)C(C)C)cc1 |  | inactive: 0.286%
16 | COC(=O)c1ccc(NC(=O)C2CCCO2)cc1 (stereo not given) | inconclusive [activator, partial curve] | 
17 | O=C(Nc1ccc2c(c1)OCO2)c1c(Cl)nc2sccn12 | inconclusive [activator, partial curve] | 
18 | O=C(O)c1cc(N/N=C/c2ccc3c(c2)OCO3)ccc1Cl | active: 282 nM | 
19 | COc1ccccc1CNC(=O)c1ccc(-c2ccccc2C(F)(F)F)o1 |  | inactive: -2.96%
20 | Cc1cc(C(=O)Nc2ccc3[nH]ccc3c2)no1 | active: 2240 nM | 
21 | CC1(C)CN=C(N(Cc2ccccc2)C(=O)Nc2ccccc2)S1 | inconclusive [activator, single point] | 
22 | N/C(=N\OC(=O)c1ccc2c(c1)OCO2)c1ccc([N+](=O)[O-])cc1 | inconclusive [activator, single point] | 
23 | Cc1cccc(OCc2cc(-c3ccccc3)no2)c1C | inconclusive [activator, single point] | 
24 | Cc1nnc(SCC(=O)Nc2ccccc2F)n1-c1ccc(F)cc1 |  | inactive: -3.78%
25 | Cc1ccc(-c2nc(-c3ccccn3)no2)cc1Cl | active: 355 nM | 
26 | c1ccc(CSc2nnc(-c3ccco3)n2Cc2ccco2)cc1 | inconclusive [activator, partial curve] | 
27 | CCN1CCN(S(=O)(=O)c2ccc(Cl)c(C(=O)NCCc3ccccc3)c2)CC1 | inconclusive [activator, partial curve] | 

Row | Compound | Potency | activation
28 | CCOC(=O)N1CCN(C(=O)c2noc3c2COc2ccccc2-3)CC1 | inconclusive [activator, single point] | 
29 | COc1ccccc1N=Nc1c(C)[nH]n(-c2ccccc2)c1=O | inconclusive [activator, partial curve] | 
30 | Cc1c(C(=O)OCC(=O)N2C(C)CCCC2C)oc2ccccc12 (stereo not given) | inconclusive [activator, partial curve] | 
31 | CCOc1cc(C=O)ccc1OCCSc1ccc(C)cc1 |  | inactive: -1.12%
32 | c1ccc(CN=C2NN=C(c3ccccc3)CS2)cc1 | inconclusive [activator, partial curve] | 
33 | COc1ccc2nc(Nc3nc(C)c(C(C)=O)s3)sc2c1 | active: 2820 nM | 
34 | N/C(=N\OC(=O)c1ccc(Br)cc1)c1ccncc1 | inconclusive [activator, partial curve] | 
35 | COc1cccc(C(=O)N=c2sc3cc(S(C)(=O)=O)ccc3n2C)c1 | inconclusive [activator, partial curve] | 
36 | Cc1cccc(NC(=O)Nc2ccc(C)cc2Br)c1 | inconclusive [activator, partial curve] | 
37 | COc1ccc(-n2nc(C)cc2N)cc1 |  | inactive: -0.304%
38 | O=C(COc1ccccc1)Nc1ccccc1F | inconclusive [activator, single point] | 
39 | COc1ccc(/C=N\NC(=O)C2=NNC(=O)C2C)cc1 (stereo not given) | inconclusive [activator, partial curve] | 
40 | O=C(Nc1ccc(OCc2ccccc2)cc1)c1ccccc1 | inconclusive [activator, partial curve] | 
41 | COc1ccccc1-c1ccc2nnc(SC)n2n1 |  | inactive: -0.354%
42 | COc1cc(C(=O)Nc2cccc(NC(=O)c3ccccc3)c2)cc(OC)c1OC |  | inactive: -0.813%
43 | CCOc1cc(Cl)c(S(=O)(=O)NCCCn2ccnc2)cc1Cl |  | inactive: -6.52%
44 | CC(C)(C)c1ccc(C(=O)Nc2nnc(SCC(=O)NCC3CCCO3)s2)cc1 (stereo not given) | active: 501 nM | 
45 | Cc1ccc2oc(C(=O)N(Cc3ccncc3)CC3CCCO3)c(C)c2c1 (stereo not given) | inconclusive [activator, single point] | 
46 | O=C(CCCN1C(=O)C(c2ccccc2)Oc2cccnc21)Nc1cccc(F)c1 (stereo not given) | inconclusive [activator, single point] | 
47 | O/N=C/c1ccc2ccccc2c1 |  | inactive: 9.55%
48 | Nc1nnc(SCC(=O)NN2C(=O)NC3(CCCCC3)C2=O)s1 |  | inactive: -1.85%
49 | Cc1ccnc(NC(=O)CCc2c[nH]c3ccccc23)c1 | inconclusive [activator, single point] | 
50 | Cc1ccc(C2CCN(C(=O)Nc3ccccc3)C2)cc1 (stereo not given) | active: 4470 nM | 
51 | Cc1ccc(OCC(=O)NCc2ccccn2)c(Br)c1 | inconclusive [activator, single point] | 
52 | COc1ccc(/C=C/c2ccc3cccc(O)c3n2)cc1Br | inconclusive [activator, single point] | 
53 | O=C(Nc1c(C(=O)Nc2ccc3c(c2)OCCO3)cnn1-c1ccccc1Cl)c1ccco1 | inconclusive [activator, partial curve] | 
54 | Cc1ccc(C)c(SCC(=O)NC2CCS(=O)(=O)C2)c1 (stereo not given) |  | inactive: -3.24%

Row | Compound | Potency | activation
55 | N#CCC(=O)Nc1ccc(C(=O)OCC(=O)c2ccc3c(c2)OCCO3)cc1 | inconclusive [activator, partial curve] | 
56 | Cc1ccc(-c2cc(-c3ccccc3)no2)cc1 | active: 631 nM | 
57 | O=C(O)C1Oc2cc3ccccc3cc2O1 |  | inactive: 1.88%
58 | Cc1ccc(-n2c(=O)c3sccc3n(Cc3cc(=O)n4ccccc4n3)c2=O)cc1F |  | inactive: -1.91%
59 | CN(C(=O)c1cccnc1)c1nc(-c2ccccc2)cs1 | inconclusive [activator, partial curve, poor fit] | 
60 | Cc1csc(NC(=O)c2sccc2C)n1 | active: 1780 nM | 
61 | O=C(NCCN1CCOCC1)c1cccn2c(=O)c3c4c(sc3nc12)CCCC4 |  | inactive: -1.82%
62 | COc1ccc(S(=O)(=O)N(Cc2ccco2)Cc2cc3ccccc3[nH]c2=O)cc1 |  | inactive: -2.22%
63 | Cc1nnc(NC(=O)c2ccccc2-c2ccccc2C(=O)O)s1 |  | inactive: 2.71%
64 | Cc1cc(C)nc(NS(=O)(=O)c2ccc(NC(=O)CSc3nc(-c4ccccc4)c(C#N)c(=O)[nH]3)cc2)n1 |  | inactive: -1.85%
65 | CCOC(=O)c1c(C)[nH]c(C2=NNC(=NC3CC3)SC2)c1C | inconclusive [activator, full curve] | 
66 | CN(Cc1cccs1)C(=O)c1cccc(S(=O)(=O)N2CCCCCC2)c1 |  | inactive: -0.541%
67 | CCOC(=O)c1ccc(-c2ccc3c(c2)CCC3)nc1C | active: 1580 nM | 
68 | O=C(NC1=NCCS1)c1ccc(Br)s1 | active: 3550 nM | 
69 | N/C(=N\OC(=O)c1csnn1)c1ccc(C(F)(F)F)cc1 | inconclusive [activator, single point] | 
70 | CC(C)c1ccc(NC(=O)C2CC(=O)Nc3nc4ccccc4n32)cc1 (stereo not given) |  | inactive: 1.34%
71 | Clc1ccc(/C=N/Nc2ncnc3ccccc23)cc1Cl | inconclusive [activator, single point] | 
72 | Cc1cccc(N=Nc2cn[nH]c2-c2ccco2)c1 | inconclusive [activator, single point] | 
73 | O=C(/C=C/c1ccccc1Cl)Nc1cccnc1 | active: 1120 nM | 
74 | CSc1nsc(SCC(=O)Nc2ccc3c(c2)OCCO3)n1 |  | inactive: 9.5%
75 | COc1cccc(-c2nc(-c3ccccc3)no2)c1 | inconclusive [activator, single point] | 
76 | CCCCC[C@]12Cc3cc(OC)c(OC)cc3C(O1)c1c(cc(C)n(-c3ccccc3)c1=O)O2 |  | inactive: -1.5% [at 1.84 µM]
77 | C/C(=N\NC(=O)c1cc2ccccc2cc1O)c1ccc(C)o1 |  | inactive: 27.3%
78 | COC(=O)c1ccc2c(=O)n(CCCCCC(=O)N3CCN(c4ccccc4)CC3)c(=O)[nH]c2c1 |  | inactive: -1.73%
79 | CC(Sc1nnc(NC2CCCCC2)s1)C(=O)Nc1ccc2c(c1)C(=O)c1ccccc1C2=O (stereo not given) | inconclusive [activator, partial curve] | 
80 | COc1ccc(-c2cc(C(=O)N/N=C(\C)c3cccnc3)c3ccccc3n2)cc1 | inconclusive [activator, partial curve, poor fit] | 

Source: PubChem BioAssay AID485313 (National Center for Advancing Translational Sciences (NCATS), 2010)
